# Results from PubChem BioAssay AID485294 (National Center for Advancing Translational Sciences (NCATS), 2010).
# The whole screen tested about 370,000 compounds, of which about 150 (0.041%) were called active. Inconclusive results, whose numbers are uncertain, are shown with a selection of clear calls. Calls come from the whole dose curve; as a rule, active = well fitted inhibition curve with a large enough effect; inconclusive = small, poorly fitted or top-dose-only effect; inactive = flat fitted curve, though single readings scatter. No potency is given beside an inconclusive call; the fits are too rough.
# Target: Beta-lactamase (Escherichia coli (strain K12)) (UniProt P00811)
# Chain of UniProt P00811 (P00811 whole entry, looked up): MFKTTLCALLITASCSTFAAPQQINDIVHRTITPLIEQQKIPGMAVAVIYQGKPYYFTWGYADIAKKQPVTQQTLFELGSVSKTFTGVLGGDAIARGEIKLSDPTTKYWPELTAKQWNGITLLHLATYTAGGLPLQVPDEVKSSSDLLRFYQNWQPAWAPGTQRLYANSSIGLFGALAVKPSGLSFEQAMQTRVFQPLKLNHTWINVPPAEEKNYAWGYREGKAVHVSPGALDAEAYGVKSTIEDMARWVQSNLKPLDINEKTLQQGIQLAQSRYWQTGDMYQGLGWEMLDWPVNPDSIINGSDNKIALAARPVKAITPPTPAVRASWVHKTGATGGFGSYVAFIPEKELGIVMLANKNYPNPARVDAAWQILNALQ
# Test: qHTS Inhibitors of AmpC Beta-Lactamase (assay with detergent); note: nearly all actives have a fitted effect of over 25% in size
# Conditions: AmpC hydrolysis of nitrocefin, absorbance 480 nm, 0.01% Triton; series mostly up to 114 µM
# Summary of the method: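 AmpC (5.3 nM in the dispensed reagent) in 20 mM phosphate pH 7.0 with 0.01% (detergent screen) or 0.0001% Triton X-100 was preincubated with compounds for 15 min at room temperature. Nitrocefin was then added from an 800 uM solution, and hydrolysis was followed at 480 nm.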
# Potency is the fitted concentration of half-maximal effect; tags give direction and shape of the fitted curve.
row,Compound,Potency
1,O=C1C(Nc2ccccc2)=C(NS(=O)(=O)c2ccccc2)C(=O)c2ccccc21,"inconclusive [inhibitor, single point]"
2,N#CCC(N)=C(C#N)C#N,"inconclusive [inhibitor, full curve, poor fit]"
3,COC(=O)CSc1nnc(-c2ccccc2OC)o1,"inconclusive [inhibitor, single point]"
4,Cn1nc(C(F)(F)F)c2cc(NC(=O)OCc3ccc(C(C)(C)C)cc3)sc21,"inconclusive [inhibitor, single point]"
5,CC(C)c1c(O)nc(SCc2ccc(F)cc2)[nH]c1=O,"inconclusive [inhibitor, partial curve, poor fit]"
6,CCN(C(=O)CN1CCCCC1)c1c(N)n(Cc2ccccc2)c(=O)[nH]c1=O,"inconclusive [inhibitor, partial curve, poor fit]"
7,Cc1nc(NC(=O)c2oc3ccccc3c2C)sc1C(=O)N(C)C,inactive
8,CCCn1nc(C(=O)Nc2ccc3c(c2)OCO3)c2ccccc2c1=O,"inconclusive [inhibitor, full curve, poor fit]"
9,O=C1C2CC=CCC2C(=O)N1c1ccc(NCCc2ccc(O)cc2)c([N+](=O)[O-])c1 (stereo unspecified),"inconclusive [inhibitor, full curve, poor fit]"
10,O=C(O)COc1ccc(Br)cc1/C=N/O,"inconclusive [inhibitor, full curve]"
11,Cc1ccc(-c2csc3ncnc(Oc4ccc5c(C)cc(=O)oc5c4)c23)cc1,"inconclusive [inhibitor, single point]"
12,CCN(CC)C(=O)C(=O)N/N=C/c1ccc(F)cc1,inactive
13,N/C(=N\OC(=O)COc1ccc([N+](=O)[O-])cc1)c1cccnc1,"inconclusive [inhibitor, single point]"
14,COc1cc(OC)cc(C(=O)Nc2ccc(Br)cc2C(=O)c2ccccc2)c1,"inconclusive [inhibitor, partial curve]"
15,C=CCOc1c(CNc2cccc(C(=O)O)c2)cccc1OC,inactive
16,O=C(c1ccc(F)cc1)C1CCN(C(=O)c2c(F)cccc2F)CC1,"inconclusive [inhibitor, full curve, poor fit]"
17,CCOc1ccc(S(=O)(=O)NC(C)C(=O)NCc2cccnc2)cc1 (stereo unspecified),"inconclusive [inhibitor, full curve, poor fit]"
18,CN(C)C=Nc1ncc2c([nH]c3ccccc32)c1C#N,inactive
19,O=C1c2ccccc2C(Nc2ccc3c(c2)OCCO3)N1Cc1ccccc1 (stereo unspecified),"inconclusive [inhibitor, full curve, poor fit]"
20,COc1ccc(CNC(=S)Nc2ccc(S(N)(=O)=O)cc2)cc1,"inconclusive [inhibitor, single point]"
21,COc1ccc(-c2nnc(SCc3ncc(-c4ccccc4)o3)o2)cc1,"inconclusive [inhibitor, partial curve]"
22,CCCn1c(=O)c(C(=O)Nc2cccc(C)c2)c(O)c2ccccc21,inactive

row,Compound,Potency
1,Cc1ccc(O)c(CNc2cnc3ccccc3c2)c1,inactive
2,Cc1cccc2[nH]c(-c3ccc(NC(=O)c4ccco4)cc3)nc12,"inconclusive [inhibitor, full curve, poor fit]"
3,CCCC(c1nnnn1CCc1ccccc1)N1CCN(C(=O)c2ccco2)CC1 (stereo unspecified),"inconclusive [inhibitor, full curve, poor fit]"
4,S=C1NC[C@H](Cc2ccccc2)N1CCCCC1CCCCC1,inactive
5,C=CCNC(=S)NNC(=O)c1ccc(Br)cc1,"inconclusive [inhibitor, single point]"
6,CCOc1ccc(C(=O)NCC(=O)OCC(=O)N2CCC(C)CC2)cc1,"inconclusive [inhibitor, single point]"
7,CCOc1ccc(NC(=S)N(CCN2CCOCC2)Cc2cc3cc4c(cc3[nH]c2=O)OCO4)cc1,inactive
8,O=C(NC1CCCC1)C(Cc1ccccc1)n1cccc1 (stereo unspecified),"inconclusive [inhibitor, full curve, poor fit]"
9,COc1ccc(-c2cc3c(=O)n(CC(=O)NCCCN4CCN(Cc5ccccc5)CC4)ncn3n2)cc1,"inconclusive [inhibitor, full curve, poor fit]"
10,O=C(c1ccc(S(=O)(=O)N2CCOCC2)cc1)N1CCN(c2cccc(Cl)c2)CC1,"inconclusive [inhibitor, full curve, poor fit]"
11,CCc1noc(C)c1C(=O)N1CCN(S(=O)(=O)c2ccc(Br)cc2Cl)CC1,"inconclusive [inhibitor, single point]"
12,O=C(CSc1nnc(Cc2ccccc2)o1)c1ccccc1,inactive
13,CCCCCn1c(CNC(=O)CCC)nc2ccccc21,"inconclusive [inhibitor, partial curve]"
14,O=C(CCc1ccccc1Cl)N1CCN(S(=O)(=O)c2ccccc2)CC1,"inconclusive [inhibitor, full curve, poor fit]"
15,CN(C)S(=O)(=O)Nc1ccc(Oc2ccccc2)cc1,"inconclusive [inhibitor, full curve, poor fit]"
16,CCOc1ccccc1C(=O)N(CN1CCCC1=O)c1ccc(C)c(Cl)c1,"inconclusive [inhibitor, single point]"
17,O=C(Cc1ccc(S(=O)(=O)N2CCOCC2)s1)Nc1cc(C(F)(F)F)ccc1N1CCCC1,"inconclusive [inhibitor, single point]"
18,COc1ccccc1NC(=S)N(Cc1ccc(C)cc1)Cc1cccnc1,inactive
19,COC(=O)c1cc(/C=C/c2ccccc2)[nH]n1,"inconclusive [inhibitor, full curve, poor fit]"
20,CCOC(=O)c1cccc(NC(=O)CCS(=O)(=O)c2cccc3nsnc23)c1,"inconclusive [inhibitor, single point]"
21,CC1CCC2(CC1)NC(=O)N(CC(=O)c1cccn1C)C2=O (stereo unspecified),"inconclusive [inhibitor, single point]"
22,O=C(N/N=C/C(Cl)=C/c1ccccc1)c1ccccn1,inactive

row,Compound,Potency
1,Cc1c(N(C)S(=O)(=O)c2cccc(C(=O)NCC3CCCO3)c2)c(=O)n(-c2ccccc2)n1C (stereo unspecified),inactive
2,CC(C)NC(=O)NC(=O)COC(=O)/C=C/c1ccccc1[N+](=O)[O-],"inconclusive [inhibitor, full curve, poor fit]"
3,Cc1ccc(S(=O)(=O)N(C(=O)c2ccncc2)c2ccc(OC(=O)c3ccncc3)cc2)cc1,"inconclusive [inhibitor, single point]"
4,COc1cc2c(c(OC)c1OC)-c1ccc(NC(=O)c3ccccc3)c(=O)cc1[C@@H](NC(C)=O)CC2,"inconclusive [inhibitor, partial curve, poor fit]"
5,COCC(=O)Nc1nc(-c2ccc(-c3ccccc3)cc2)cs1,inactive
6,COC(=O)c1ccccc1N=Cc1c(O)[nH]c(=O)[nH]c1=O,inactive
7,Cn1c(=O)c(C#N)c(-c2ccccc2)n2cnnc12,"inconclusive [inhibitor, full curve]"
8,COc1ccc(CNC(=O)[C@@H](NC(=O)C2CCN(C(=O)[C@@H](N)CCSC)CC2)C(C)C)cc1,"inconclusive [inhibitor, partial curve, poor fit]"
9,Cc1ccccc1NC(=O)C1CCC(CNS(=O)(=O)c2ccc3c(c2)C(C)(C)C(=O)N3C)CC1 (stereo unspecified),inactive
10,CCOC(=O)c1cc2sccc2n1CC(=O)OC,"inconclusive [inhibitor, full curve]"
11,Cc1ccc(C(=O)Nc2ccccc2N2CCN(C(=O)C(C)C)CC2)cc1,"inconclusive [inhibitor, full curve]"
12,O=C(c1cnc2sccn2c1=O)N(Cc1ccccc1)c1ccccn1,"inconclusive [inhibitor, full curve, poor fit]"
13,CCn1c(CSc2nnc(-c3ccoc3C)n2C)nc2cc(S(=O)(=O)N(C)C)ccc21,"inconclusive [inhibitor, partial curve, poor fit]"
14,COc1cc(OC)c(NC(=O)C2CC(=O)N(c3ccc4c(c3)OCCO4)C2)cc1Cl (stereo unspecified),"inconclusive [inhibitor, full curve, poor fit]"
15,COc1cc(CNC(=O)CCC(=O)N2C[C@H]3C[C@H](C2)c2cccc(=O)n2C3)cc(OC)c1OC,"inconclusive [inhibitor, partial curve]"
16,COc1ccc(C2C3=C(CC(C)(C)CC3=O)Oc3ncn(CC(C)C)c(=N)c32)cc1 (stereo unspecified),inactive
17,COC(=O)C1=C(C)NC(=O)/C1=C\c1cc(C)n(-c2c(C)cccc2C)c1C,"inconclusive [inhibitor, full curve, poor fit]"
18,CCOC(=O)c1[nH]c2ccccc2c1NC(=O)C(C)(C)C,"inconclusive [inhibitor, full curve, poor fit]"
19,CCOc1ccc(NC(=O)Cn2c(=O)oc3cc(S(=O)(=O)NC4CCCC4)ccc32)cc1,inactive
20,O=C(NCCCCNC(=O)c1ccc(Br)s1)c1ccc(Br)s1,"inconclusive [inhibitor, single point]"
21,O=C(/C=C/c1ccccc1Cl)NCCc1ccccc1,inactive
22,Cc1cc(C)n(C(=O)/C(C#N)=N\Nc2ccccc2[N+](=O)[O-])n1,"inconclusive [inhibitor, full curve, poor fit]"
